In the supplement of paper PMC8728848:
The list shows a part of the results.

What was measured:
Test in all cases: glycan array binding signal (z-score within array); higher = stronger binding
Settings in all cases: glycan notation: IUPAC condensed, linker removed
[1] = target: Fuc(a1-2)[Gal(a1-3)]Gal(b1-4)Glc
Method in brief: (§1)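 From the Consortium for Functional Glycomics database, 3228 arrays were curated, keeping only those whose protein sequence was available. Binding is given as a within-array Z-score averaged across arrays sharing a protein sequence and across linkers. Negative Z-scores can be read as non-binding.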

[2] = target: Fuc(a1-2)[Gal(a1-3)]Gal(b1-4)GlcNAc
Method in brief: as §1

[3] = target: Fuc(a1-2)[Gal(a1-3)]Gal(b1-4)GlcNAc(b1-2)Man(a1-3)[Fuc(a1-2)[Gal(a1-3)]Gal(b1-4)GlcNAc(b1-2)Man(a1-6)]Man(b1-4)GlcNAc(b1-4)GlcNAc
Method in brief: as §1

[4] = target: Fuc(a1-2)[Gal(a1-3)]Gal(b1-4)GlcNAc(b1-2)Man(a1-3)[Fuc(a1-2)[Gal(a1-3)]Gal(b1-4)GlcNAc(b1-2)Man(a1-6)]Man(b1-4)GlcNAc(b1-4)[Fuc(a1-6)]GlcNAc
Method in brief: as §1

[5] = target: Fuc(a1-2)[Gal(a1-3)]Gal(b1-4)GlcNAc(b1-3)GalNAc
Method in brief: as §1

[6] = target: Fuc(a1-2)[Gal(a1-3)]Gal(b1-4)[Fuc(a1-3)]Glc
Method in brief: as §1

[7] = target: Fuc(a1-2)[Gal(a1-3)]Gal(b1-4)[Fuc(a1-3)]GlcNAc
Method in brief: as §1

[8] = target: Fuc(a1-2)[Gal(a1-3)]Gal(b1-4)[Fuc(a1-3)]GlcNAc(b1-3)GalNAc
Method in brief: as §1

[9] = target: Fuc(a1-2)[Gal(a1-4)]Gal(b1-4)GlcNAc
Method in brief: as §1

[10] = target: Fuc(a1-2)[GalNAc(a1-3)]Gal
Method in brief: as §1

[11] = target: Fuc(a1-2)[GalNAc(a1-3)]Gal(b1-3)GalNAc(a1-3)[Fuc(a1-2)]Gal(b1-4)GlcNAc
Method in brief: as §1

[12] = target: Fuc(a1-2)[GalNAc(a1-3)]Gal(b1-3)GlcNAc
Method in brief: as §1

[13] = target: Fuc(a1-2)[GalNAc(a1-3)]Gal(b1-3)GlcNAc(b1-2)Man(a1-3)[Fuc(a1-2)[GalNAc(a1-3)]Gal(b1-3)GlcNAc(b1-2)Man(a1-6)]Man(b1-4)GlcNAc(b1-4)GlcNAc
Method in brief: as §1

[14] = target: Fuc(a1-2)[GalNAc(a1-3)]Gal(b1-3)GlcNAc(b1-2)Man(a1-3)[Fuc(a1-2)[GalNAc(a1-3)]Gal(b1-3)GlcNAc(b1-2)Man(a1-6)]Man(b1-4)GlcNAc(b1-4)[Fuc(a1-6)]GlcNAc
Method in brief: as §1

[15] = target: Fuc(a1-2)[GalNAc(a1-3)]Gal(b1-3)GlcNAc(b1-3)GalNAc
Method in brief: as §1

[16] = target: Fuc(a1-2)[GalNAc(a1-3)]Gal(b1-4)Glc
Method in brief: as §1

[17] = target: Fuc(a1-2)[GalNAc(a1-3)]Gal(b1-4)GlcNAc
Method in brief: as §1

[18] = target: Fuc(a1-2)[GalNAc(a1-3)]Gal(b1-4)GlcNAc(b1-2)Man(a1-3)[Fuc(a1-2)[GalNAc(a1-3)]Gal(b1-4)GlcNAc(b1-2)Man(a1-6)]Man(b1-4)GlcNAc(b1-4)GlcNAc
Method in brief: as §1

[19] = target: Fuc(a1-2)[GalNAc(a1-3)]Gal(b1-4)GlcNAc(b1-2)Man(a1-3)[Fuc(a1-2)[GalNAc(a1-3)]Gal(b1-4)GlcNAc(b1-2)Man(a1-6)]Man(b1-4)GlcNAc(b1-4)[Fuc(a1-6)]GlcNAc
Method in brief: as §1

[20] = target: Fuc(a1-2)[GalNAc(a1-3)]Gal(b1-4)GlcNAc(b1-3)Gal(b1-4)GlcNAc
Method in brief: as §1

[21] = target: Fuc(a1-2)[GalNAc(a1-3)]Gal(b1-4)GlcNAc(b1-3)Gal(b1-4)GlcNAc(b1-3)Gal(b1-4)GlcNAc
Method in brief: as §1

[22] = target: Fuc(a1-2)[GalNAc(a1-3)]Gal(b1-4)GlcNAc(b1-3)GalNAc
Method in brief: as §1

[23] = target: Fuc(a1-2)[GalNAc(a1-3)]Gal(b1-4)[Fuc(a1-3)]GlcNAc
Method in brief: as §1

[24] = target: Fuc(a1-2)[GalNAc(a1-3)]Gal(b1-4)[Fuc(a1-3)]GlcNAc(b1-3)GalNAc
Method in brief: as §1

[25] = target: Fuc(a1-2)[GalNAc(a1-4)]Gal(b1-4)GlcNAc
Method in brief: as §1

[26] = target: Fuc(a1-2)[GalNAc(b1-3)]Gal
Method in brief: as §1

Fuc(a1-3)GlcNAc = target: Fuc(a1-3)GlcNAc
Method in brief: as §1

[27] = target: Fuc(a1-3)[Gal(b1-4)]Glc6S
Method in brief: as §1

[28] = target: Fuc(a1-3)[Gal(b1-4)]GlcNAc
Method in brief: as §1

[29] = target: Fuc(a1-3)[Gal(b1-4)]GlcNAc(b1-2)Man(a1-3)[Fuc(a1-3)[Gal(b1-4)]GlcNAc(b1-2)Man(a1-6)]Man(b1-4)GlcNAc(b1-4)GlcNAc
Method in brief: as §1

[30] = target: Fuc(a1-3)[Gal(b1-4)]GlcNAc(b1-2)Man(a1-3)[Fuc(a1-3)[Gal(b1-4)]GlcNAc(b1-2)Man(a1-6)]Man(b1-4)GlcNAc(b1-4)[Fuc(a1-6)]GlcNAc
Method in brief: as §1

[31] = target: Fuc(a1-3)[Gal(b1-4)]GlcNAc(b1-3)Gal(b1-3)[Fuc(a1-4)]GlcNAc
Method in brief: as §1

[32] = target: Fuc(a1-3)[Gal(b1-4)]GlcNAc(b1-3)GalNAc
Method in brief: as §1

[33] = target: Fuc(a1-3)[Gal(b1-4)]GlcNAc(b1-4)Gal(b1-4)[Fuc(a1-3)]GlcNAc
Method in brief: as §1

[34] = target: Fuc(a1-3)[Gal(b1-4)]GlcNAc(b1-4)Gal(b1-4)[Fuc(a1-3)]GlcNAc(b1-4)Gal(b1-4)[Fuc(a1-3)]GlcNAc
Method in brief: as §1

[35] = target: Fuc(a1-3)[Gal(b1-4)]GlcNAc(b1-6)GalNAc
Method in brief: as §1

[36] = target: Fuc(a1-3)[Gal(b1-4)]GlcNAc(b1-6)[Gal(b1-3)GlcNAc(b1-3)]Gal(b1-4)Glc
Method in brief: as §1

[37] = target: Fuc(a1-3)[Gal(b1-4)]GlcNAc(b1-6)[Neu5Ac(a2-3)Gal(b1-3)]GalNAc
Method in brief: as §1

[38] = target: Fuc(a1-3)[Gal(b1-4)]GlcNAc6S
Method in brief: as §1

[39] = target: Fuc(a1-3)[Gal3S(b1-4)]GlcNAc
Method in brief: as §1

[40] = target: Fuc(a1-3)[Gal3S(b1-4)]GlcNAc6S
Method in brief: as §1

[41] = target: Fuc(a1-3)[GalNAc(b1-4)]GlcNAc
Method in brief: as §1

Fuc(a1-4)GlcNAc = target: Fuc(a1-4)GlcNAc
Method in brief: as §1

Fuc(b1-3)GlcNAc = target: Fuc(b1-3)GlcNAc
Method in brief: as §1

Gal(a1-2)Gal = target: Gal(a1-2)Gal
Method in brief: as §1

B1: RS2L (Ralstonia solanacearum), B5RXL5_RALSO (protein)
chain: MAQQGVFTLPANTSFGVTAFANAANTQTIQVLVDNVVKATFTGSGTSDKLLGSQVLNSGSGAIKIQVSVNGKPSDLVSNQTILANKLNFAMVGSEDGTDNDYNDGIAVLNWPLG
- glycan array binding signal (z-score) [1]: -0.252
- glycan array binding signal (z-score) [2]: -0.25
- glycan array binding signal (z-score) [3]: -0.19
- glycan array binding signal (z-score) [4]: 0.421
- glycan array binding signal (z-score) [5]: -0.237
- glycan array binding signal (z-score) [6]: -0.209
- glycan array binding signal (z-score) [7]: -0.246
- glycan array binding signal (z-score) [8]: -0.242
- glycan array binding signal (z-score) [9]: 0.019
- glycan array binding signal (z-score) [10]: -0.228
- glycan array binding signal (z-score) [11]: -0.231
- glycan array binding signal (z-score) [12]: -0.254
- glycan array binding signal (z-score) [13]: -0.044
- glycan array binding signal (z-score) [14]: 1.32
- glycan array binding signal (z-score) [15]: -0.219
- glycan array binding signal (z-score) [16]: -0.244
- glycan array binding signal (z-score) [17]: -0.25
- glycan array binding signal (z-score) [18]: -0.182
- glycan array binding signal (z-score) [19]: 0.496
- glycan array binding signal (z-score) [20]: -0.253
- glycan array binding signal (z-score) [21]: -0.24
- glycan array binding signal (z-score) [22]: -0.245
- glycan array binding signal (z-score) [23]: -0.235
- glycan array binding signal (z-score) [24]: -0.233
- glycan array binding signal (z-score) [25]: -0.243
- glycan array binding signal (z-score) [26]: -0.238
- glycan array binding signal (z-score) (Fuc(a1-3)GlcNAc): -0.173
- glycan array binding signal (z-score) [27]: -0.237
- glycan array binding signal (z-score) [28]: -0.224
- glycan array binding signal (z-score) [29]: -0.169
- glycan array binding signal (z-score) [30]: -0.246
- glycan array binding signal (z-score) [31]: -0.174
- glycan array binding signal (z-score) [32]: -0.24
- glycan array binding signal (z-score) [33]: -0.039
- glycan array binding signal (z-score) [34]: -0.164
- glycan array binding signal (z-score) [35]: -0.24
- glycan array binding signal (z-score) [36]: -0.217
- glycan array binding signal (z-score) [37]: -0.234
- glycan array binding signal (z-score) [38]: -0.233
- glycan array binding signal (z-score) [39]: -0.237
- glycan array binding signal (z-score) [40]: -0.236
- glycan array binding signal (z-score) [41]: -0.24
- glycan array binding signal (z-score) (Fuc(a1-4)GlcNAc): -0.032
- glycan array binding signal (z-score) (Fuc(b1-3)GlcNAc): 0.079
- glycan array binding signal (z-score) (Gal(a1-2)Gal): -0.238
